Reference: the supplement of paper PMC5655136
Read counts after selection give these values, which scatter widely.

Tested on: NB7
Assay: fold depletion of shRNA, plasmid library share / infected cells without Dox share (9 days) (ratio); higher = more depleted after infection (more toxic, leaky expression from a Tet-inducible vector; NB7 is a neuroblastoma line without caspase-8)
[1] = shRNA pool: CD95L ORF + CD95L 3'UTR + Venus libraries
[2] = shRNA pool: CD95 ORF + CD95 3'UTR + Venus libraries
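Further: shRNA barcodes quantified by deep sequencing of PCR amplicons from cellular DNA, counts expressed as percent of each subpool, ratio averaged over two biological duplicates.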

## TTTTGAGGAATCTCAGACGTT
[1]
  fold depletion of shRNA: 2.78

## TTTTGCCCCTTGTGTTTGGAA
[2]
  fold depletion of shRNA: 10.1

## TTTTGCCTTGGTGCTCATCTT
[2]
  fold depletion of shRNA: 4.8

## TTTTGCTGAAATATCAGTTAC
[2]
  fold depletion of shRNA: 0.667

## TTTTGTAACTCTACTGTATGT
[2]
  fold depletion of shRNA: 0.601

## TTTTGTGAAATGAAAACATGT
[1]
  fold depletion of shRNA: 1.6

## TTTTTAATATCTCATGATTCT
[2]
  fold depletion of shRNA: 1.51

## TTTTTACTGGGTACATTTTAT
[2]
  fold depletion of shRNA: 1.88

## TTTTTCGGCTTATATAAGCTC
[1]
  fold depletion of shRNA: 2.11

## TTTTTCTTCCAAATGCAGAAG
[2]
  fold depletion of shRNA: 1.21

## TTTTTGTAACTCTACTGTATG
[2]
  fold depletion of shRNA: 0.888

## TTTTTGTGAAATGAAAACATG
[1]
  fold depletion of shRNA: 1.24

## TTTTTTACTGGGTACATTTTA
[2]
  fold depletion of shRNA: 0.854

## TTTTTTGCCCCTTGTGTTTGG
[2]
  fold depletion of shRNA: 1.37

## TTTTTTGTAACTCTACTGTAT
[2]
  fold depletion of shRNA: 0.973

## TTTTTTTGTAACTCTACTGTA
[2]
  fold depletion of shRNA: 1.82
